Test results: PubChem BioAssay AID1671194 (National Center for Advancing Translational Sciences (NCATS), 2021)
Out of some 140,000 compounds screened, about 240 (0.17%) were called active. The shares of active, inactive and inconclusive entries below differ from those in the screen. Calls come from the whole dose curve; as a rule, active = well fitted inhibition curve with a large enough effect; inconclusive = small, poorly fitted or top-dose-only effect; inactive = no such curve, though single readings can be large or run the other way. Where the call is inconclusive, the potency comes from a doubtful curve fit.

Test: Primary qHTS assay for inhibitors of alpha-synuclein gene (SNCA) expression; note: nearly all actives have a fitted effect of over 45% in size;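 for activity change, negative = inhibition: plate controls were DMSO cells for no effect and cell-free wells for full effect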
Settings: HEK-293 SNCA-luciferase knock-in, luminescence, 24 h; activity change, negative = inhibition: at 57.2 µM (top of the series) unless noted
Potency is the fitted concentration of half-maximal effect; tags give direction and shape of the fitted curve.

Potency, inconclusive:
COc1ccc(CNC(=O)CCc2c(C)nc3c4cccnc4nn3c2C)cc1 0.158 µM [inhibitor, partial curve, poor fit]
O=C(Nc1ncc(Cc2ccccc2Cl)s1)c1ccc2c(c1)CC(c1ccccc1)OC2=O (stereo not drawn) 39.8 µM [inhibitor, single point]
Cc1ccc(NC(=O)Cn2cc(S(=O)(=O)Cc3ccccc3)c3ccccc32)cc1C 39.8 µM [inhibitor, single point]
O=C1CCCCC(C(=O)NCc2ccc(Cl)cc2)N1 (stereo not drawn) 8.91 µM [inhibitor, partial curve, poor fit]
CC(C)c1ccc(NC(=O)c2cc(S(=O)(=O)NCCc3ccccc3)ccc2F)cc1 39.8 µM [inhibitor, single point]
COCc1nc(C2CCN(C(=O)c3ccco3)C2)no1 (stereo not drawn) 1.41 µM [inhibitor, full curve]
COc1ccc(NC(=O)CN2C(=O)C(c3ccccc3)=NC23CCC(C)CC3)cc1Cl (stereo not drawn) 39.8 µM [inhibitor, single point]
CN(C)C[C@H]1C[C@@H](CO)CN(C(=O)CCc2ccncc2)C1 39.8 µM [inhibitor, single point]
O=C(CSc1oc(-c2ccc(F)cc2)nc1S(=O)(=O)c1ccccc1)c1ccc(Cl)cc1 39.8 µM [inhibitor, single point]
Cc1cc(OC(C)C(=O)N(Cc2ccco2)Cc2ccco2)cc(C)c1Cl (stereo not drawn) 17.8 µM [inhibitor, partial curve, poor fit]
O=C(CCC1CCN(c2cc(NC3CC3)ncn2)CC1)NCc1ccc(F)cc1 2.51 µM [inhibitor, full curve, poor fit]
CCc1ccccc1N1C(=O)N(Cc2cc(=O)n3ccccc3n2)c2ccccc2S1(=O)=O 10 µM [inhibitor, partial curve, poor fit]
C=CCC1(CO)CCCN(C(=O)c2cccc(N3CCNC3=O)c2)C1 (stereo not drawn) 7.08 µM [inhibitor, full curve, poor fit]

Activity change, negative = inhibition, inactive:
Cc1cccc(OCC(=O)N2CCC(n3cc(-c4nc(-c5ccccc5)no4)nn3)C2)c1 (stereo not drawn) 9.9%
CCc1nc(-c2c3n(c(=O)n(CC(=O)Nc4ccc(C)c(C)c4)c2=O)CCCC3)no1 27.2%
CCC(C(=O)NCc1ccccc1Cl)n1c(=O)c2cccn2c2ccccc21 (stereo not drawn) -11.2%
CC(C)c1ccc(CN2CCCC(O)(CN3CCSCC3)C2=O)cc1 (stereo not drawn) -11.8%
O=C1Nc2ccccc2O[C@H]2C[C@@H]1N(C(=O)Cc1ccccc1)C2 51.6% [at 87.6 µM]
